Each compound was assayed against Recombinant heterodimeric HCV NS3/NS4A protease (strain 1a) (Hepatitis C virus genotype 1a, UniProt P27958) (assay: Spectrophotometric assay for HCV serine protease inhibitory activity (chromogenic ester substrates)). Details: Table 3A; cells that print a number instead of a class symbol; read-out: Ki* Range.
Type: biochemical

| Structure (SMILES) | Ki [nM] |
| --- | --- |
| CCC[C@H](NC(=O)[C@@H]1[C@@H]2[C@H](CN1C(=O)[C@@H](NC(=O)NC1(CS(=O)(=O)C3(C)CCCCC3)CCCCC1)C(C)(C)C)C2(C)C)C(=O)C(=O)NC1CC1 [Compound 739] | 18 |

Same assay, conditions: Table 3A; class symbols; read-out: Ki* Range

| Structure (SMILES) | Ki [nM] |
| --- | --- |
| C=CCNC(=O)C(=O)[C@H](CC1CC1)NC(=O)[C@@H]1CC2(CN1C(=O)[C@@H](NC(=O)NC1(CS(=O)(=O)C(C)(C)C)CCCCC1)C(C)(C)C)SCCCS2 [Compound 732] | < 75 |
| C=CCNC(=O)C(=O)[C@H](CC1CC1)NC(=O)[C@@H]1[C@@H]2[C@H](CN1C(=O)[C@@H](NC(=O)NC1(CS(=O)(=O)C3CCCC3)CCCCC1)C1CCCCC1)C2(C)C [Compound 733] | < 75 |
| C=CCNC(=O)C(=O)[C@H](CCCC)NC(=O)[C@@H]1[C@@H]2[C@H](CN1C(=O)[C@@H](NC(=O)NC1(CS(=O)(=O)C3CCCC3)CCCCC1)C1CCCCC1)C2(C)C [Compound 734] | < 75 |
| C=CCNC(=O)C(=O)[C@H](CC1CC1)NC(=O)[C@@H]1[C@@H]2[C@H](CN1C(=O)[C@@H](NC(=O)NC1(CS(=O)(=O)C(C)(C)C)CCCCC1)C1(C)CCCC1)C2(C)C [Compound 735] | < 75 |
| CCCCC(NC(=O)[C@@H]1[C@@H]2[C@H](CN1C(=O)[C@@H](NC(=O)NC1(CS(=O)(=O)C(C)(C)C)CCCCC1)C(C)(C)C)C2(C)C)C(=O)C(=O)NCc1cccnc1 (stereo partly drawn) [Compound 736] | < 75 |
| CC(C)(C)[C@H](NC(=O)NC1(CS(=O)(=O)C(C)(C)C)CCCCC1)C(=O)N1C[C@H]2[C@@H]([C@H]1C(=O)NC(CC1CC1)C(=O)C(=O)NCc1cccnc1)C2(C)C (stereo partly drawn) [Compound 737] | < 75 |
| CCCC(NC(=O)[C@@H]1[C@@H]2[C@H](CN1C(=O)[C@@H](NC(=O)NC1(CS(=O)(=O)C(C)(C)C)CCCCC1)C(C)(C)C)C2(C)C)C(=O)C(=O)NCc1cccnc1 (stereo partly drawn) [Compound 738] | < 75 |
| C=CCNC(=O)C(=O)[C@H](CCC1CC1)NC(=O)[C@@H]1[C@@H]2[C@H](CN1C(=O)[C@@H](NC(=O)NC1(CS(=O)(=O)C(C)(C)CO)CCCCC1)C(C)(C)C)C2(C)C [Compound 740] | < 75 |
| CC(C)(C)[C@H](NC(=O)NC1(CS(=O)(=O)C(C)(C)CO)CCCCC1)C(=O)N1C[C@H]2[C@@H]([C@H]1C(=O)N[C@@H](CCC1CC1)C(=O)C(=O)NC1CC1)C2(C)C [Compound 743] | < 75 |
| C=CCNC(=O)C(=O)[C@H](CC1CC1)NC(=O)[C@@H]1[C@@H]2[C@H](CN1C(=O)[C@@H](NC(=O)NC1(CS(=O)(=O)C(C)(C)CO)CCCCC1)C(C)(C)C)C2(C)C [Compound 744] | < 75 |
| C=CCNC(=O)C(=O)[C@H](CC1CC1)NC(=O)[C@@H]1[C@@H]2[C@H](CN1C(=O)[C@@H](NC(=O)NC1(CS(=O)(=O)C(C)(C)CO)CCCCC1)C1(C)CCCCC1)C2(C)C [Compound 745] | < 75 |
| CC(C)(C)[C@H](NC(=O)NC1(C2CCCS2(=O)=O)CCCCC1)C(=O)N1C[C@H]2[C@@H]([C@H]1C(=O)N[C@@H](CCC1CC1)C(=O)C(=O)NC1CC1)C2(C)C (stereo partly drawn) [Compound 746] | < 75 |
| C=CCNC(=O)C(=O)[C@H](CC1CC1)NC(=O)[C@@H]1[C@@H]2[C@H](CN1C(=O)[C@@H](NC(=O)NC1(CS(=O)(=O)C(C)(C)COC3CCCCO3)CCCCC1)C(C)(C)C)C2(C)C (stereo partly drawn) [Compound 747] | < 75 |
| C=CCNC(=O)C(=O)[C@H](CC1CC1)NC(=O)[C@@H]1[C@@H]2[C@H](CN1C(=O)[C@@H](NC(=O)NC1(CS(=O)(=O)C(C)(C)COC3CCCCO3)CCCCC1)C1(C)CCCCC1)C2(C)C (stereo partly drawn) [Compound 749] | < 75 |
| C=CCNC(=O)C(=O)[C@H](CCC1CC1)NC(=O)[C@@H]1[C@@H]2[C@H](CN1C(=O)[C@@H](NC(=O)NC1(CS(=O)(=O)C(C)(C)CF)CCCCC1)C(C)(C)C)C2(C)C [Compound 750] | < 75 |
| C=CCNC(=O)C(=O)[C@H](CC1CC1)NC(=O)[C@@H]1[C@@H]2[C@H](CN1C(=O)[C@@H](NC(=O)NC1(CS(=O)(=O)C(C)(C)CF)CCCCC1)C(C)(C)C)C2(C)C [Compound 751] | < 75 |
| C=CCNC(=O)C(=O)[C@H](CC1CC1)NC(=O)[C@@H]1[C@@H]2[C@H](CN1C(=O)[C@@H](NC(=O)NC1(CS(=O)(=O)C(C)(C)COC)CCCCC1)C(C)(C)C)C2(C)C [Compound 752] | < 75 |
| C=CCNC(=O)C(=O)[C@H](CCC1CC1)NC(=O)[C@@H]1[C@@H]2[C@H](CN1C(=O)[C@@H](NC(=O)NC1(CS(=O)(=O)C(C)(C)COC)CCCCC1)C(C)(C)C)C2(C)C [Compound 753] | < 75 |
| C#CCNC(=O)C(=O)[C@H](CCC1CC1)NC(=O)[C@@H]1[C@@H]2[C@H](CN1C(=O)[C@@H](NC(=O)NC1(C3CCCCS3(=O)=O)CCCCC1)C(C)(C)C)C2(C)C (stereo partly drawn) [Compound 754] | < 75 |
| C=CCNC(=O)C(=O)[C@H](CCCC)NC(=O)[C@@H]1[C@@H]2[C@H](CN1C(=O)[C@@H](NC(=O)NC1(CS(=O)(=O)C(C)(C)C)CCCCC1)C(C)(C)C)C2(Cl)Cl [Compound 755] | < 75 |
| C=CCNC(=O)C(=O)[C@H](CCCC)NC(=O)[C@@H]1[C@@H]2[C@H](CN1C(=O)[C@@H](NC(=O)NC1(C3CCCCS3(=O)=O)CCCCC1)C1(C)CCCCC1)C2(C)C (stereo partly drawn) [Compound 756] | < 75 |
| C=CCNC(=O)C(=O)C(CCC1CC1)NC(=O)[C@@H]1[C@@H]2[C@H](CN1C(=O)[C@@H](NC(=O)NC1(CS(=O)(=O)C(C)(C)C)CCCCC1)C(C)(C)C)C2(Cl)Cl (stereo partly drawn) [Compound 757] | < 75 |

| Structure (SMILES) | Ki [nM] |
| --- | --- |
| C=CCNC(=O)C(=O)[C@H](CCC)NC(=O)[C@@H]1[C@@H]2[C@H](CN1C(=O)[C@@H](NC(=O)NC1(CS(=O)(=O)C(C)(C)C)CCCCC1)C(C)(C)C)C2(Cl)Cl [Compound 758] | < 75 |
| CCCC[C@H](NC(=O)[C@@H]1[C@@H]2[C@H](CN1C(=O)[C@@H](NC(=O)NC1(CS(=O)(=O)C(C)(C)C)CCCCC1)C(C)(C)C)C2(Cl)Cl)C(=O)C(=O)NC1CC1 [Compound 759] | < 75 |
| CCC[C@H](NC(=O)[C@@H]1[C@@H]2[C@H](CN1C(=O)[C@@H](NC(=O)NC1(CS(=O)(=O)C(C)(C)CO)CCCCC1)C1(C)CCCCC1)C2(C)C)C(=O)C(=O)NC1CC1 [Compound 761] | < 75 |
| CC1([C@H](NC(=O)NC2(CS(=O)(=O)C(C)(C)CO)CCCCC2)C(=O)N2C[C@H]3[C@@H]([C@H]2C(=O)N[C@@H](CCC2CC2)C(=O)C(=O)NC2CC2)C3(C)C)CCCCC1 [Compound 762] | < 75 |
| CCCC(NC(=O)[C@@H]1[C@@H]2[C@H](CN1C(=O)[C@@H](NC(=O)NC1(CS(=O)(=O)C(C)(C)C)CCCCC1)C1(C)CCCCC1)C2(C)C)C(=O)C(=O)NC1CC1 (stereo partly drawn) [Compound 763] | 75 to 250 |
| CC(C)(C)[C@H](NC(=O)NC1(CS(=O)(=O)C(C)(C)C)CCCCC1)C(=O)N1C[C@H]2[C@@H]([C@H]1C(=O)NC(CCC1CC1)C(=O)C(=O)NC1CC1)C2(Cl)Cl (stereo partly drawn) [Compound 764] | < 75 |
| C=CCNC(=O)C(=O)[C@H](CCCC)NC(=O)[C@@H]1[C@@H]2[C@H](CN1C(=O)[C@@H](NC(=O)NC1(CS(=O)(=O)C(C)(C)COC)CCCCC1)C(C)(C)C)C2(C)C [Compound 765] | < 75 |
| CCC[C@H](NC(=O)[C@@H]1[C@@H]2[C@H](CN1C(=O)[C@@H](NC(=O)NC1(CS(=O)(=O)C(C)(C)CO)CCCCC1)C(C)(C)C)C2(C)C)C(=O)C(=O)NC1CC1 [Compound 766] | < 75 |
| CCCC[C@H](NC(=O)[C@@H]1[C@@H]2[C@H](CN1C(=O)[C@@H](NC(=O)NC1(CS(=O)(=O)C(C)(C)COC)CCCCC1)C(C)(C)C)C2(C)C)C(=O)C(=O)NC1CC1 [Compound 767] | < 75 |
| C=CCNC(=O)C(=O)[C@H](CCC)NC(=O)[C@@H]1[C@@H]2[C@H](CN1C(=O)[C@@H](NC(=O)NC1(CS(=O)(=O)C(C)(C)CO)CCCCC1)C(C)(C)C)C2(C)C [Compound 768] | < 75 |
| C=C(F)CNC(=O)C(=O)[C@H](CC1CC1)NC(=O)[C@@H]1[C@@H]2[C@H](CN1C(=O)[C@@H](NC(=O)NC1(CS(=O)(=O)C(C)(C)C)CCCCC1)C(C)(C)C)C2(C)C [Compound 769] | < 75 |
| CC1([C@H](NC(=O)NC2(CS(=O)(=O)C(C)(C)C)CCCCC2)C(=O)N2C[C@H]3[C@@H]([C@H]2C(=O)N[C@@H](CCC2CC2)C(=O)C(=O)NC2CC2)C3(C)C)CCCCC1 [Compound 770] | < 75 |
| C=CCNC(=O)C(=O)[C@H](CCC1CC1)NC(=O)[C@@H]1[C@@H]2[C@H](CN1C(=O)[C@@H](NC(=O)NC1(CS(=O)(=O)C(C)(C)COCC)CCCCC1)C(C)(C)C)C2(C)C [Compound 771] | < 75 |
| C=CCNC(=O)C(=O)[C@H](CCC1CC1)NC(=O)[C@@H]1[C@@H]2[C@H](CN1C(=O)[C@@H](NC(=O)NC1(CS(=O)(=O)C(C)(C)C)CCCCC1)C1CCCCC1)C2(C)C [Compound 772] | < 75 |
| C=CCNC(=O)C(=O)[C@H](CC1CC1)NC(=O)[C@@H]1[C@@H]2[C@H](CN1C(=O)[C@@H](NC(=O)NC1(CS(=O)(=O)C(C)(C)COCC)CCCCC1)C(C)(C)C)C2(C)C [Compound 773] | < 75 |
| C=CCNC(=O)C(=O)[C@H](CCCC)NC(=O)[C@@H]1[C@@H]2[C@H](CN1C(=O)[C@@H](NC(=O)NC1(CS(=O)(=O)C(C)(C)CF)CCCCC1)C(C)(C)C)C2(C)C [Compound 774] | < 75 |
| C=CCNC(=O)C(=O)[C@H](CCCC)NC(=O)[C@@H]1[C@@H]2[C@H](CN1C(=O)[C@@H](NC(=O)NC1(CS(=O)(=O)C(C)(C)CO)CCCCC1)C(C)(C)C)C2(C)C [Compound 775] | < 75 |
| C=CCNC(=O)C(=O)[C@H](CCCC)NC(=O)[C@@H]1[C@@H]2[C@H](CN1C(=O)[C@@H](NC(=O)NC1(CS(=O)(=O)C(C)(C)CO)CCCCC1)C1(C)CCCCC1)C2(C)C [Compound 776] | < 75 |
| C=CCNC(=O)C(=O)[C@@H](CC1CC1)NC(=O)[C@@H]1CC2(CN1C(=O)[C@@H](NC(=O)NC1(CS(=O)(=O)C(C)(C)C)CCCCC1)C(C)(C)C)SCCCS2 [Compound 777] | 75 to 250 |
| C=CCNC(=O)C(=O)C(CCCC)NC(=O)[C@@H]1CC2(CN1C(=O)[C@@H](NC(=O)NC1(C3CCCS3(=O)=O)CCCCC1)C(C)(C)C)SCCCS2 (stereo partly drawn) [Compound 778] | < 75 |
| C=CCNC(=O)C(=O)C(CC1CC1)NC(=O)[C@@H]1CC2(CN1C(=O)[C@@H](NC(=O)NC1(C3CCCS3(=O)=O)CCCCC1)C(C)(C)C)SCCCS2 (stereo partly drawn) [Compound 779] | < 75 |
| C=CCNC(=O)C(=O)[C@H](CCCC)NC(=O)[C@@H]1[C@@H]2[C@H](CN1C(=O)[C@@H](NC(=O)NC1(C3CCCS3(=O)=O)CCCCC1)C(C)(C)C)C2(Cl)Cl (stereo partly drawn) [Compound 787] | < 75 |

From patent US8067379B2, “Sulfur compounds as inhibitors of hepatitis C virus NS3 serine protease” (Schering Corporation, priority 2004, dated 2011)
